Reference: ChEMBL document CHEMBL1157539, “Thousands of chemical starting points for antimalarial lead identification” (Nature, 2010)
In all, about 13,000 compounds were measured (“IFI”: median about 4, highest 2% from about 17 on). The list shows a part of the results.

experiment: GSK_TCMDC: Inhibition Frequency Index (IFI). The number of non-kinase HTS assays where a compound showed > 50 % inhibition, expressed as a percentage of the number of such assays in which the compound was tested (-0 is zero); type: functional

Structure (SMILES) | IFI
O=C(Nc1ccc(-c2cncc(NCCCN3CCCC3)c2)cc1)c1ccccc1 | 0%
O=C(Nc1ccccc1)N(Cc1ccccc1-c1cccc(CNCCc2ccccc2)c1)C1CCN(Cc2ccccc2)CC1 | 11.3%
O=C(/C=C/c1ccc([N+](=O)[O-])cc1)N1CCC(NS(=O)(=O)c2ccc(F)cc2)CC1 | -0%
CC(=O)c1ccc(NC(=O)Nc2ccc3nccc(N4CCN(C)CC4)c3c2)cc1 | -0%
Cc1ccccc1CNc1noc(-c2c(-c3ccccc3)noc2C)n1 | 3.03%
N=C(N)NC(=O)Nc1ccc(Cl)c([N+](=O)[O-])c1 | 0.75%
CCN(CC)CCCC(C)Nc1cc(C)nc2cc(Cl)ccc12 (centres undefined) | 0.8%
COc1ccc(NC(=O)/C=C/c2ccccc2Cl)cc1OCCN1CCN(c2ccncc2)CC1 | 2.1%
CC(=O)N(C)c1cccc(C(=O)Nc2cccc(-c3cccc(-c4nc5cc(C(F)(F)F)ccc5[nH]4)c3)c2)c1 | 5.26%
OC(CNCc1ccccc1OCc1ccccc1)c1cccc(C(F)(F)F)c1 (centres undefined) | 7.69%
O=C(Nc1cccc(CN2CCN(C(=O)c3cccc(Cl)c3)CC2)c1)c1ccco1 | 1.5%
FC(F)(F)c1ccc2[nH]c(-c3ccc(-c4ccc(CN5CCN(c6cnccn6)CC5)cc4)cc3)nc2c1 | 5.88%
COc1ccc(Cl)cc1N1CCN(CCCNC(=O)c2ccc(-c3nc4cc(Cl)c(F)cc4[nH]3)s2)CC1 | 2.13%
O=C(N[C@@H](Cc1ccccc1)C(=O)NCCN1CCCC1)c1ccc(O)c(-c2ccc(Cl)c(Cl)c2)c1 | 1.46%
O=C(Nc1cccc(CN2CCCN(CC3CCCCC3)CC2)c1)c1ccc(Cl)c(Cl)c1 | 2.72%
CCCc1cc(OC)c(CC2c3cc(O)c(Cl)cc3C(c3ccccc3)CN2C)cc1OC (centres undefined) | 3.23%
CCn1ccc2c(N3CCCCS3(=O)=O)cc(C(=O)N[C@@H](Cc3ccccc3)[C@H](O)CNC(C)(C)c3cccc(C(F)(F)F)c3)cc21 | 5.84%
CCCCCN1CCCC(CNS(=O)(=O)c2cccc(C(=O)Nc3ccc(C(F)(F)F)cc3)c2)C1 (centres undefined) | 7.23%
CCCc1cc(C)ccc1OCCCON1C(N)=NC(N)=NC1(C)C | 6.29%
CC(CCc1ccccc1)NCC(O)c1ccc2c(c1)S(=O)(=O)c1ccccc1N2 (centres undefined) | 2.13%

Structure (SMILES) | IFI
CC(C)Oc1ccc(N2CCN(CCCCNC(=O)c3ccc(NC(=O)c4ccc(Cl)cc4)cc3)CC2)c(OC(C)C)c1 | 2.68%
C=CCOC(=O)N1CCC(CNCc2cccc(-c3cccc(-c4nc5ccccc5[nH]4)c3)c2)C1 (centres undefined) | 7.77%
CCC(CN1C(=N)NC(c2ccccc2)(c2ccccc2)C1=O)c1ccccc1 (centres undefined) | 9.62%
CCCCC(CC)NC(=O)[C@H]1CNCCN1C(=O)CCCc1ccccc1 (some centres undefined) | 1.44%
CCC(C)Oc1ccc2nc(N)nc(N)c2c1Cl (centres undefined) | 2.13%
Cc1cc(O)c(-c2cccc(Oc3ccc(Cl)cc3)c2)c(C)n1 | 1.54%
CS(=O)(=O)Cc1cccc(Nc2ncc(Cl)c(Nc3cccnc3C(N)=O)n2)c1 | 4%
Cc1[nH]c(C)c(-c2ccc(OCc3ccccc3C(F)(F)F)nc2)c(=O)c1Br | 3.64%
CC(Nc1ccnc2cc(Cl)ccc12)c1ccc(S(N)(=O)=O)cc1 (centres undefined) | 1.47%
COc1cc2c(cc1S(=O)(=O)c1ccc(NC(=O)Nc3ccc(F)cc3)cc1)CCN(C)CC2 | 1.59%
Cc1noc(C)c1-c1ccc2c(Nc3ccc([N+](=O)[O-])cc3)c(C(N)=O)cnc2c1 | 1.63%
Oc1ccc(CCNc2nc(NCCCOc3ccccc3-c3cccnc3)nc(N3CCNCC3)n2)cc1 | 6.9%
C=CCc1cc(Br)ccc1OCCCOc1c(N)nc(N)nc1N | 7.25%
NC(=O)COc1c(C2CCN(CCN3CCC(CNC(=O)c4ccc(-c5ccc(C(F)(F)F)cc5)cc4)CC3)CC2)ccc2c1CCCC2 | 5.43%
CN(C)c1cccc2c1nc(-c1ccco1)n2CCNCc1ccccc1 | 2.67%
Cc1n[nH]c2cc(Nc3nccc(Nc4ccc(Oc5ccccc5)cc4)n3)ccc12 | 3.73%
Cc1cccc2nc(-c3ccc(-c4ccc(CNCC5CCCO5)cc4)cc3)[nH]c12 (centres undefined) | 8.91%
CNC(=O)c1cc(NCCCNCc2ccc(Cl)c(C(F)(F)F)c2)nc2ccccc12 | 5.19%
CCOc1ccc(-c2nc(NC(=O)CS(=O)(=O)c3ccccc3)sc2C)cc1 | 2.91%
CC(OC(=O)c1ccc(C(=O)NCC2CC2)cc1)C(C)(C)C (centres undefined) | 0.76%

Structure (SMILES) | IFI
Cc1c(C(C)(C)C)ccc2nc(N)nc(N)c12 | 2.34%
CCn1c(-c2ccccc2)cc2nnc3ccccc3c21 | 2.99%
O=C1OC(c2cc3ccccc3n2S(=O)(=O)c2ccccc2)(c2cc3ccccc3n2S(=O)(=O)c2ccccc2)c2ccccc21 | 0%
COc1cc2nc(NCCc3ccccc3)nc(NCCc3ccccc3)c2cc1OC | 9.77%
COc1ccc2ccccc2c1CNCCCCCCNCc1c(OC)ccc2ccccc12 | 9.93%
COc1cccc(C(=O)OC2=C3CCC(=O)C3(C)CCC2=O)c1 (centres undefined) | 1.4%
N=C(N)NN=Cc1cc2ccccc2c2ccccc12 | 4.29%
Cc1noc(C)c1-c1cccc(CNCc2ccc(-c3ccc(-c4nc5cc(C(F)(F)F)ccc5[nH]4)s3)cc2)c1 | 3.88%
CC(=O)Nc1cccc(Nc2nccc(-c3c(-c4cccc(NC(=O)c5c(F)cccc5F)c4)nn4ncccc34)n2)c1 | 7.97%
COc1cc(Nc2ccnc3ccc(C(F)(F)F)cc23)cc(OC)c1OC | 2.92%
Cc1ccc2[nH]c(/C=C/c3cccc4cc[nH]c34)nc2c1 | 2.78%
COc1ccc2nccc([C@H](O)CN3CCC(NCc4cc(C)c5c(c4)OCCO5)CC3)c2n1 | 0.96%
N#Cc1ccc2[nH]cc(CN3CCC4(CC3)CN(CCNCc3ccccc3)C(=O)O4)c2c1 | 0.85%
CCCCSc1c(CNCCCCCCNCc2ccc3ccccc3c2SCCCC)ccc2ccccc12 | 15.8%
COc1ccc(CNC2CCN(C)CC2)cc1-c1ccc(S(=O)(=O)NC2CCC2)s1 | 8.33%
CCOC(=O)c1ccc(NC(=O)Nc2cccc(-c3cccc(-c4nc5cccc(C)c5[nH]4)c3)c2)cc1 | 10.8%
CCCSc1nc2c(c(=O)n1Cc1ccco1)C1(CCCCC1)Cc1ccccc1-2 | 2.9%
COc1cc2c(cc1O)[C@@H]1[C@H](O)[C@@H](O)C=C3CCN(C2)[C@H]31 | 4.14%
CCOC(=O)c1ccc(OCCCCCCOc2ccc(Br)cc2)cc1 | 0.7%
